The list shows a part of the results.
Tests used:
HSkMC = human skeletal muscle cells; assay: cytotoxicity call (relative viability < 0.9); conditions: 10 µM
HepG2 = assay: cytotoxicity call (relative viability < 0.9); conditions: 10 µM
S. aureus RN4220 = assay: growth inhibition call (relative growth <= 0.2); conditions: 50 µM

| Compound | cytotoxicity call (HSkMC) | cytotoxicity call (HepG2) | growth inhibition call (S. aureus RN4220) |
| --- | --- | --- | --- |
| Cc1occc1C(=O)NNC(=O)C1CC1 | inactive | inactive | inactive |
| C[C@H](N)C(=O)NCC(=O)N[C@H]1CSSC[C@@H](C(=O)O)NC(=O)[C@H](CO)NC(=O)[C@H]([C@@H](C)O)NC(=O)[C@H](Cc2ccccc2)NC(=O)[C@H]([C@@H](C)O)NC(=O)[C@H](CCCCN)NC(=O)[C@H](Cc2c[nH]c3ccccc23)NC(=O)[C@H](Cc2ccccc2)NC(=O)[C@H](Cc2ccccc2)NC(=O)[C@H](CC(N)=O)NC(=O)[C@H](CCCCN)NC1=O | inactive | inactive | inactive |
| Cc1noc(C)c1S(=O)(=O)Nc1ccc2c(c1)C(=O)N([C@@H](C)CO)C[C@@H](C)[C@H](CN(C)S(=O)(=O)c1ccc(Cl)cc1)O2 | inactive | inactive | inactive |
| Cc1noc(C)c1NC(=O)N(C)C[C@@H]1OCCCC[C@@H](C)Oc2ccc(NC(=O)Cc3ccccc3)cc2C(=O)N([C@H](C)CO)C[C@H]1C | inactive | inactive | inactive |
| COc1ccc(S(=O)(=O)N(C)C[C@@H]2Oc3cc(-c4ccccc4OC)ccc3S(=O)(=O)N([C@H](C)CO)C[C@@H]2C)cc1 | inactive | active | inactive |
| C[C@H](CO)N1C[C@H](C)[C@H](CN(C)Cc2ccc(Cl)c(Cl)c2)Oc2ccc(NC(=O)Nc3ccc(F)cc3)cc2CC1=O | active | active | inactive |
| COC(=O)C[C@@H]1CC[C@@H]2[C@H](COC[C@H](O)CN2S(=O)(=O)c2cn(C)cn2)O1 | inactive | inactive | inactive |
| C[C@H](CO)N1C[C@H](C)[C@@H](CN(C)C(=O)Nc2cc(F)ccc2F)Oc2cc(/C=C/c3ccccc3)ccc2S1(=O)=O | inactive | inactive | inactive |
| CCCC#Cc1ccc2c(c1)O[C@@H](CN(C)Cc1ccc3c(c1)OCO3)[C@H](C)CN([C@@H](C)CO)S2(=O)=O | inactive | inactive | inactive |
| C[C@@H]1CN([C@@H](C)CO)C(=O)Cc2cc(NS(C)(=O)=O)ccc2O[C@H]1CN(C)S(C)(=O)=O | inactive | inactive | inactive |
| C[C@H](CO)N1C[C@H](C)[C@@H](CN(C)C(=O)Nc2ccc(C(F)(F)F)cc2)OCCCC[C@H](C)Oc2ccc(NC(=O)C3CCCCC3)cc2C1=O | inactive | inactive | inactive |
| C[C@@H]1CN([C@H](C)CO)C(=O)c2c(c3ccccc3n2C)-c2ccccc2CO[C@@H]1CN(C)Cc1cccc(C(=O)O)c1 | inactive | inactive | inactive |
| Nc1ncnc(N[C@H]2CCS(=O)(=O)C2)c1[N+](=O)[O-] | inactive | inactive | inactive |
| CO[C@H]1CN(C)C(=O)c2cc(NC(=O)C3CC3)ccc2OC[C@@H](C)N(C(=O)C2CCOCC2)C[C@@H]1C | inactive | inactive | inactive |
| C[C@@H]1CN([C@H](C)CO)C(=O)c2cc(NC(=O)Cc3ccccc3)ccc2O[C@@H](C)CCCCO[C@H]1CN(C)Cc1ccc(C(=O)O)cc1 | inactive | inactive | inactive |
| C[C@H](CO)N1C[C@H](C)[C@@H](CN(C)S(=O)(=O)c2ccccc2)Oc2ncc(C#CC3(O)CCCC3)cc2C1=O | inactive | inactive | inactive |
| C[C@@H]1CCCCO[C@@H](CN(C)Cc2ccc(C(=O)O)cc2)[C@@H](C)CN([C@H](C)CO)C(=O)c2cc(NC(=O)Nc3ccc(C(F)(F)F)cc3)ccc2O1 | inactive | inactive | inactive |
| Cc1noc(C)c1NC(=O)Nc1ccc2c(c1)C(=O)N([C@@H](C)CO)C[C@H](C)[C@@H](CN(C)S(=O)(=O)c1cn(C)cn1)O2 | inactive | inactive | inactive |
| COc1ccc(CN(C)C[C@@H]2Oc3ccc(NC(=O)CCN4CCOCC4)cc3CC(=O)N([C@@H](C)CO)C[C@H]2C)cc1 | inactive | inactive | inactive |
| COc1ccc(NC(=O)Nc2ccc3c(c2)C(=O)N([C@H](C)CO)C[C@H](C)[C@@H](CN(C)S(=O)(=O)c2ccc(OC)cc2)OCCCC[C@H](C)O3)cc1 | inactive | inactive | inactive |
| C[C@@H]1CCCCO[C@H](CN(C)C(=O)Cc2ccccc2)[C@@H](C)CN([C@@H](C)CO)C(=O)c2cc(NC(=O)C3CCCCC3)ccc2O1 | inactive | inactive | inactive |
| Cc1noc(C)c1NC(=O)N(C)C[C@@H]1OCCCC[C@@H](C)Oc2ccc(NC(=O)Nc3ccc(C(F)(F)F)cc3)cc2C(=O)N([C@H](C)CO)C[C@@H]1C | inactive | inactive | inactive |

Reference: the antibiotic and cytotoxicity screens of Wong et al. (2023)
